The whole screen tested about 150,000 compounds, of which about 540 (0.36%) showed an effect of 50% or more. Some of the results follow.
system: Plasmodium falciparum; assay: Primary screen in NF54 nanoGlo assay, in single point, at 2uM, 72h; a lower Z score goes with more inhibition; type: functional, Erythrocyte; conditions: timepoint 72 hour

Compound	% Inhibition	Z score
C=CCC(CC=C)C(=O)NCCNc1ccccc1	-1%	0.23
CC(C)OCCOC[C@@H](O)CN(C)CCC(=O)Nc1ccccc1	-11%	1.12
Cn1ccnc1CN1CCc2[nH]cnc2[C@H]1c1c(F)cccc1Cl	-12%	2.29
O=C1C[C@H](c2noc(-c3n[nH]c4ccccc34)n2)CN1c1ccccc1	1%	-0.13
C[C@H]1Cc2ccccc2N1C(=O)c1ccnc(OCC2CCOCC2)c1	-22%	4.12
CC(=O)Nc1nsc(N2CCC(C(=O)N3CCN(C4CCCCC4)CC3)CC2)n1	-15%	2.37
O=C(NCCc1ccccc1)N[C@H]1CCc2nn(CC3CC3)c(=O)n2CC1	-11%	1.65
O=C(Nc1ccnn1C[C@@H]1CC=CCC1)N1CCOc2ccc(CO)cc2C1	-12%	1.51
Cc1cccc(-n2c(=O)n(C3CC3)c(=O)c3c2ncn3CCOc2ccccc2)c1	6%	-0.57
CC(=O)Nc1ccc(OCC(=O)NCc2ccccc2F)nc1	-1%	0.21
Cn1nc(C(F)(F)F)cc1S(=O)(=O)NCC[C@]1(O)CCCOC1	-4%	0.49
Cc1nccc(Oc2ccc(-n3cccn3)cc2)n1	-7%	0.8
Cc1cc(Cc2nc(CC(N)=O)nn2-c2ccc3nc(C)sc3c2)on1	-8%	0.97
CN(Cc1cccnc1)C(=O)c1ccc2c(c1)OCO2	4%	-0.78
Cc1nc(C)c(CC(=O)Nc2ccc(N(C)C)nc2)c(=O)[nH]1	9%	-1.18
CC(C)c1c(C(=O)N2CCN(C/C=C/c3ccccc3)CC2)cnn1-c1nccc(-c2ccco2)n1	-14%	1.77
Cn1c2c(c(=O)n(C)c1=O)/N=N\c1c(c(=O)n(C)c(=O)n1C)/N=N\2	-8%	0.99
Cc1ccc2nccc(C(=O)N3CCC[C@H](CCC(=O)N4CCCC4)C3)c2c1	11%	-1.42
Cc1c(-c2ccc(Cl)cc2)nnn1C[C@H](O)COCC(C)C	-1%	0.18
Cc1nnc2c3ccc(Cl)cc3nc(N3CCN(S(=O)(=O)c4cccc(Cl)c4)[C@@H](C)C3)n12	-15%	1.79
CCc1c(C(=O)N(CCO)Cc2ccc(C)o2)ccn1C	-1%	0.14
CN1CCN([C@@H]2COC3(C2)CN(S(=O)(=O)c2ccccc2Cl)C3)CC1	-4%	0.63
Cc1nc(C)c(-c2cccc(C(=O)NCC[C@H](C)n3ccnc3)c2)s1	-12%	1.59
CC(C)(C)OC(=O)N1CCC2(CC1)O[C@@H](CN)Cc1ccccc12	-15%	2.02
CCc1nnc([C@@H]2CN(c3ccnc(C(C)C)n3)CCO2)o1	-4%	0.78
c1ccc(-c2nnc3nc(N4CCOCC4)nc(N4CCOCC4)n23)cc1	36%	-4.69

Compound	% Inhibition	Z score
CN(Cc1ccc(Cl)cc1)CC1(CO)CCC1	-13%	1.38
c1cc(NC2C3CCOC3C23CCC3)c2c(c1)OCCO2 (centres undefined)	1%	-0.12
COCCc1nc(CNC(=O)[C@H]2C[C@@H]2c2ccccc2)no1	1%	-0.16
O=C(Oc1ccccc1)c1ccc(NS(=O)(=O)c2ccc(Cl)cc2)cc1O	-8%	1.52
Cc1nscc1C(=O)OCc1cncn1C	-9%	1.22
CCOC(=O)N1CCN(c2ncc(Cl)c(N3CCN(C(=O)OCC)CC3)n2)CC1	-16%	3.46
O=C(O)[C@H]1C[C@H](C(=O)NCc2ccccn2)CN(CCCc2ccccc2)C1	-6%	0.52
CC1(C)Cc2nc(N3CCOCC3)ncc2[C@@H](NC2CCC2)C1	-17%	1.47
COc1cc(F)c(C(=O)N[C@@H](C)C2(S(C)(=O)=O)CC2)c(F)c1	-12%	1.44
Cc1cc(C(=O)O)nn1-c1cnc2ccccc2c1	-2%	0.31
C[C@H]1COc2ccc(C(=O)NCc3nccc(C(F)F)n3)cc21	0%	-0.01
COc1cc2c(cc1OC)CN(C(=O)[C@H](CC(C)C)N1Cc3ccccc3C1=O)[C@H](C(N)=O)C2	0%	-0.05
CC1(C(=O)NCC(O)C(F)(F)F)CCCO1 (centres undefined)	10%	-1.27
O=C(N[C@@H]1CN(c2ncccn2)C[C@H]1CO)c1ccc(F)cc1	-12%	1.69
CCOc1cc2cc(c1)C(=O)N(C)CC(=O)N[C@@H]1CN(C(=O)CCc3c(C)nc(O)nc3C)CC[C@@H]1OCc1cccc(c1)O2	-19%	2.4
CC1CCC(Oc2cc(CNC(=O)N3CC4CCC3CN4)ccn2)CC1 (centres undefined)	-1%	0.22
CC(C)(C)c1nc2ncccn2c1-c1ccc(C(=O)N[C@H]2CCOC2)cc1	-1%	0.1
CCOC(=O)C(F)(F)[C@H](N)c1ccccc1	-10%	1.24
CCN(Cc1cnn(CC)c1)C(=O)[C@@H]1CCC(=O)N(CC(C)C)[C@@H]1C	-6%	0.82
Cc1csc(C(C)(C)NCC(=O)N(C)CC(F)(F)F)n1	-7%	0.73
Cc1cnn(CC2CCCN2C(C)c2nnc(-c3cccs3)o2)c1 (centres undefined)	-12%	1.4
CCNc1ncc(C(=O)N2CC(=O)N(c3cccc(Cl)c3)C[C@@H]2C)cn1	-11%	2.18
COc1cccc(N2CCN(C(=O)c3cc(C)nc4c3c(C)nn4-c3cccc(F)c3)CC2)c1	-5%	0.51
CN([C@@H](CCc1ccccc1)C(F)F)S(=O)(=O)c1cnnn1C	-7%	1.18
Cc1ccc(-c2noc(CCn3nc(-c4ccc5c(c4)OCO5)ccc3=O)n2)cc1	-1%	0.11
CC(C)c1nnc(CNC(=O)Cc2cc(F)c(F)cc2F)n1C	3%	-0.44
